This is one part of the list. Values were computed here from the reads of four pooled replicates and scatter widely.

The test has as its target T1, Pho4 (S. cerevisiae) (UniProt P07270).
T1 sequence: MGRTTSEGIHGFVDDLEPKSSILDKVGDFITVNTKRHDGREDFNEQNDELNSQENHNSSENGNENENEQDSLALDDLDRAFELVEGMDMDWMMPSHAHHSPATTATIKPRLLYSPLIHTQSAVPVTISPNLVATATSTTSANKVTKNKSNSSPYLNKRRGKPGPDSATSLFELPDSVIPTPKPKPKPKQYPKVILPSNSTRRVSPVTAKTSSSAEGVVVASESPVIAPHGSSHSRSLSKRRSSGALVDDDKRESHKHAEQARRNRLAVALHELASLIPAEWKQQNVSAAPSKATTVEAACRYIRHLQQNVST
Briefly: relative binding free energy (BET-seq); higher = weaker binding. To be noted: reference: library average.
Take GAGGTCACGTGGATTT: the “relative binding free energy” value came to 0.31 kcal/mol.
Regarding TGTCTCACGTGGTGGT, the “relative binding free energy” value is 0.16 kcal/mol.
Under TGAATCACGTGGTAAG stands 0.24 kcal/mol; under ACTGTCACGTGTATGT, 0.02 kcal/mol.
In the case of ATTAGCACGTGTAGGA, the “relative binding free energy” value amounted to 0.01 kcal/mol.
As for ATTTACACGTGTTTTG, the “relative binding free energy” value was 0.06 kcal/mol.
Regarding GGCTCCACGTGGTTGT, the “relative binding free energy” value is -0.14 kcal/mol.
Regarding TTTGCCACGTGGGTGC, the “relative binding free energy” value is -0.25 kcal/mol.
For TAATGCACGTGTCTGT, the “relative binding free energy” value was 0.06 kcal/mol.
Regarding TTTGACACGTGATAGA, the “relative binding free energy” value stood at 0.14 kcal/mol.
As for TAAATCACGTGTTGAG, the “relative binding free energy” value was found to be 0.1 kcal/mol.
Regarding TTTCTCACGTGTTCTG, the “relative binding free energy” value is 0.18 kcal/mol.
For the sequence GGGCTCACGTGATTAT, the “relative binding free energy” value stood at 0.38 kcal/mol.
For AGTGTCACGTGACTTA the value was 0.25 kcal/mol; for GCGTCCACGTGGATGT, 0.17 kcal/mol.
Take GATTACACGTGGTGCG: the “relative binding free energy” value came to 0.26 kcal/mol.
On to TTATGCACGTGCTAGA, for which the “relative binding free energy” value was -0.06 kcal/mol.
Turning to GGGCACACGTGGTGGA, the “relative binding free energy” value turned out to be 0.27 kcal/mol.
Under TGGCTCACGTGCAGGG stands 0.19 kcal/mol.
In the case of GTTTTCACGTGGTCGA, the “relative binding free energy” value turned out to be 0.09 kcal/mol.
Turning to AAGAACACGTGAGGGG, the “relative binding free energy” value was found to be 0.34 kcal/mol.
GTGGTCACGTGCTGTA: the “relative binding free energy” value was 0.09 kcal/mol.
Under CAGTTCACGTGTTGTG stands 0.25 kcal/mol; under GTACTCACGTGGTTGT, 0.1 kcal/mol.
In the case of GGACACACGTGTAGGG, the “relative binding free energy” value was 0.05 kcal/mol.
For TACATCACGTGGATGG the value was 0.27 kcal/mol.
In the case of TAAAGCACGTGGAGGG, the “relative binding free energy” value is -0.1 kcal/mol.
As for GTGAGCACGTGGGCGC, the “relative binding free energy” value is -0.12 kcal/mol.
As for TTTATCACGTGAGCTA, the “relative binding free energy” value is 0.3 kcal/mol.
On to CTAAGCACGTGTTGGG, for which the “relative binding free energy” value is -0.08 kcal/mol.
TTGTGCACGTGACTGG: the “relative binding free energy” value turned out to be 0.1 kcal/mol.
For TACGGCACGTGACGGG the value was 0.06 kcal/mol.
Consider ATTACCACGTGAGGGT, for which the “relative binding free energy” value came to 0.06 kcal/mol.
Under TATGTCACGTGACGTG stands 0.11 kcal/mol.
As for TGATGCACGTGCGATT, the “relative binding free energy” value stood at 0.03 kcal/mol.
With TGGCTCACGTGGTAGT, the “relative binding free energy” value turned out to be 0.18 kcal/mol.
For GCTTCCACGTGTGGTT the value was 0.17 kcal/mol; for AGGTACACGTGGCTGT, -0.06 kcal/mol.
With GGAGACACGTGTTGGG, the “relative binding free energy” value was 0.08 kcal/mol.
For GTTGACACGTGCTTGT the value was -0.08 kcal/mol.
Turning to TTCGTCACGTGGGTAG, the “relative binding free energy” value was -0.11 kcal/mol.
For CTTTTCACGTGGTATG the value was 0.14 kcal/mol; for TTCATCACGTGTAATT, 0.11 kcal/mol; for TAGGGCACGTGGGCTA, -0.22 kcal/mol.
For the sequence TTGGCCACGTGGAGTA, the “relative binding free energy” value is -0.01 kcal/mol.
AAGGGCACGTGGTACG: the “relative binding free energy” value is -0.25 kcal/mol.
Under AGGTTCACGTGGGAGT stands 0.18 kcal/mol.
For TCTATCACGTGGTCGG the value was 0.18 kcal/mol; for ATGGTCACGTGTTGGA, 0.01 kcal/mol.
ATGAGCACGTGAGGAG: the “relative binding free energy” value was determined as 0.15 kcal/mol.
Consider GTTAGCACGTGGGGCC, for which the “relative binding free energy” value was -0.18 kcal/mol.
Under AGAGTCACGTGTTCAG stands 0.09 kcal/mol; under AGTTTCACGTGAGATG, 0.44 kcal/mol; under AGCGTCACGTGTAGTA, -0.08 kcal/mol.
Consider GTCTTCACGTGATTAG, for which the “relative binding free energy” value was determined as 0.36 kcal/mol.
As to CTGTGCACGTGTTGAG, the “relative binding free energy” value is 0.03 kcal/mol.
Under TCGTACACGTGGTGTC stands 0.05 kcal/mol; under GTTGACACGTGTGGGG, 0.06 kcal/mol; under TTTAGCACGTGCAGGG, -0.13 kcal/mol.
For GGCGTCACGTGTATAT, the “relative binding free energy” value was determined as 0.15 kcal/mol.
For AGATGCACGTGTGGGG, the “relative binding free energy” value is -0.02 kcal/mol.
For GGTGGCACGTGCGCTG the value was -0.05 kcal/mol; for TTGTGCACGTGTTGAA, -0.02 kcal/mol.
For TGTAGCACGTGGCCTG, the “relative binding free energy” value is -0.16 kcal/mol.
Turning to GGGCGCACGTGTAGGA, the “relative binding free energy” value is -0.11 kcal/mol.
In the case of AGCTGCACGTGCGGTA, the “relative binding free energy” value turned out to be 0 kcal/mol.
Consider CAGGCCACGTGGGATG, for which the “relative binding free energy” value is -0.08 kcal/mol.
For TGTAGCACGTGTTAAA the value was 0.04 kcal/mol; for ATTGGCACGTGGGCGA, -0.28 kcal/mol.
In the case of TAACGCACGTGGGGAG, the “relative binding free energy” value is -0.2 kcal/mol.
Regarding GTACTCACGTGGTGGT, the “relative binding free energy” value was 0.16 kcal/mol.
AAATGCACGTGTGATT: the “relative binding free energy” value is 0.08 kcal/mol.
Take AATATCACGTGGATAT: the “relative binding free energy” value turned out to be 0.2 kcal/mol.
For GTGCGCACGTGGGTCT the value was -0.26 kcal/mol; for AGGCTCACGTGGAGGT, 0.17 kcal/mol.
As for TTGATCACGTGGCAAG, the “relative binding free energy” value is 0.07 kcal/mol.
Turning to ATTGGCACGTGGGTTT, the “relative binding free energy” value was -0.23 kcal/mol.
For ATTTTCACGTGATGGA, the “relative binding free energy” value amounted to 0.26 kcal/mol.
As to CGTTGCACGTGTGGAA, the “relative binding free energy” value came to 0.02 kcal/mol.
As to TTGTTCACGTGGCAGG, the “relative binding free energy” value was 0.31 kcal/mol.
For the sequence CTGTGCACGTGTAGGT, the “relative binding free energy” value was determined as 0.05 kcal/mol.
As for TTAGTCACGTGAGTTG, the “relative binding free energy” value stood at 0.31 kcal/mol.
For the sequence TATATCACGTGCAGTG, the “relative binding free energy” value is -0.03 kcal/mol.
For GCGGGCACGTGGGCTG, the “relative binding free energy” value was -0.25 kcal/mol.
Turning to GGGCACACGTGTTGGA, the “relative binding free energy” value was 0.08 kcal/mol.
Turning to GGTATCACGTGGGACG, the “relative binding free energy” value is 0.06 kcal/mol.
Under GATCGCACGTGTTGAG stands -0.01 kcal/mol; under CTTTGCACGTGGAGTC, 0.06 kcal/mol; under TGTAACACGTGGTTGC, -0.08 kcal/mol.
For TGGCGCACGTGGTACG the value was -0.19 kcal/mol.
Consider AGGCGCACGTGGGAAT, for which the “relative binding free energy” value is -0.15 kcal/mol.
With GTGTACACGTGTGGAC, the “relative binding free energy” value was found to be 0.14 kcal/mol.
CTTCTCACGTGTTTGT: the “relative binding free energy” value was 0.15 kcal/mol.
Under TTGCGCACGTGGGGTT stands -0.32 kcal/mol; under GTGTTCACGTGGCGAG, 0.32 kcal/mol; under ATTGACACGTGCTTTG, -0.06 kcal/mol.
Regarding TTTCGCACGTGGCTTA, the “relative binding free energy” value was -0.05 kcal/mol.
With GGGTTCACGTGGTCTT, the “relative binding free energy” value stood at 0.22 kcal/mol.
For AATACCACGTGTTTGT, the “relative binding free energy” value was -0.1 kcal/mol.
Under TTAACCACGTGTTTTT stands -0.08 kcal/mol.
For TAGAACACGTGATTTT, the “relative binding free energy” value was 0.13 kcal/mol.
GTATTCACGTGTCTGT: the “relative binding free energy” value is 0.12 kcal/mol.
Turning to TTTGCCACGTGAGAGG, the “relative binding free energy” value came to 0.13 kcal/mol.
As for AATTTCACGTGTGGTT, the “relative binding free energy” value worked out at 0.27 kcal/mol.
As for GGGGGCACGTGGTTAT, the “relative binding free energy” value was -0.07 kcal/mol.
Under GGAGTCACGTGGCTAT stands 0.03 kcal/mol.
Under TAATTCACGTGGGGCT stands 0.18 kcal/mol; under TCAGTCACGTGGGGCT, -0.05 kcal/mol.
Consider GTTGTCACGTGATATC, for which the “relative binding free energy” value is 0.32 kcal/mol.
Under AAAGGCACGTGGTGGT stands -0.17 kcal/mol; under GGTGGCACGTGTAGTT, -0.1 kcal/mol.
Take GTCGGCACGTGGGGGT: the “relative binding free energy” value was -0.17 kcal/mol.
For the sequence GTAACCACGTGGGGTG, the “relative binding free energy” value was -0.16 kcal/mol.
For AGAGTCACGTGGTCGT, the “relative binding free energy” value worked out at 0.05 kcal/mol.
Consider GGGTGCACGTGTGGGA, for which the “relative binding free energy” value came to 0.04 kcal/mol.
